# From the supplement of paper PMC8728848
# Some of the results follow.
# Legend:
# Experiment in all cases: glycan array binding signal (z-score within array); higher = stronger binding
# Conditions in all cases: glycan notation: IUPAC condensed, linker removed
# [1] = target: Neu5Ac(a2-6)GlcNAc(b1-4)GlcNAc(b1-4)GlcNAc
# Outline: (§1)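 Negative Z-scores can be read as non-binding. The Z-score is calculated within each array and then averaged across arrays of one protein sequence at different concentrations or buffers and across linkers. Arrays, 3228 in all, were curated from the Consortium for Functional Glycomics database and kept only where the protein sequence was available.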
# [2] = target: Neu5Ac(a2-8)Neu5Ac
# Outline: as §1
# [3] = target: Neu5Ac(a2-8)Neu5Ac(a2-3)Gal(b1-3)GalNAc(b1-4)[Neu5Ac(a2-3)]Gal(b1-4)Glc
# Outline: as §1
# [4] = target: Neu5Ac(a2-8)Neu5Ac(a2-3)Gal(b1-3)GalNAc(b1-4)[Neu5Ac(a2-8)Neu5Ac(a2-3)]Gal(b1-4)Glc
# Outline: as §1
# [5] = target: Neu5Ac(a2-8)Neu5Ac(a2-3)Gal(b1-4)Glc
# Outline: as §1
# [6] = target: Neu5Ac(a2-8)Neu5Ac(a2-3)Gal(b1-4)GlcNAc
# Outline: as §1
# [7] = target: Neu5Ac(a2-8)Neu5Ac(a2-3)[Gal(b1-3)GalNAc(b1-4)]Gal(b1-4)Glc
# Outline: as §1
# [8] = target: Neu5Ac(a2-8)Neu5Ac(a2-3)[GalNAc(b1-4)]Gal(b1-4)Glc
# Outline: as §1
# [9] = target: Neu5Ac(a2-8)Neu5Ac(a2-8)Neu5Ac
# Outline: as §1
# [10] = target: Neu5Ac(a2-8)Neu5Ac(a2-8)Neu5Ac(a2-3)Gal(b1-4)Glc
# Outline: as §1
# [11] = target: Neu5Ac(a2-8)Neu5Ac(a2-8)Neu5Ac(a2-3)[Gal(b1-3)GalNAc(b1-4)]Gal(b1-4)Glc
# Outline: as §1
# [12] = target: Neu5Ac(a2-8)Neu5Ac(a2-8)Neu5Ac(a2-3)[GalNAc(b1-4)]Gal(b1-4)Glc
# Outline: as §1
# [13] = target: Neu5Ac(a2-8)Neu5Ac(a2-8)Neu5Ac(a2-8)Neu5Ac(a2-3)[GalNAc(b1-4)]Gal(b1-4)Glc
# Outline: as §1
# [14] = target: Neu5Ac(a2-8)Neu5Gc(a2-3)Gal(b1-4)GlcNAc
# Outline: as §1
# [15] = target: Neu5Ac(b2-6)Gal(b1-4)GlcNAc
# Outline: as §1
# [16] = target: Neu5Ac(b2-6)GalNAc
# Outline: as §1
# [17] = target: Neu5Ac9Ac(a2-3)Gal(b1-3)GlcNAc
# Outline: as §1
# [18] = target: Neu5Ac9Ac(a2-3)Gal(b1-4)GlcNAc
# Outline: as §1
# [19] = target: Neu5Ac9Ac(a2-6)Gal(b1-4)GlcNAc
# Outline: as §1
# [20] = target: Neu5Gc(a2-3)Gal(b1-3)GlcNAc
# Outline: as §1
# [21] = target: Neu5Gc(a2-3)Gal(b1-3)[Fuc(a1-4)]GlcNAc
# Outline: as §1
# [22] = target: Neu5Gc(a2-3)Gal(b1-4)Glc
# Outline: as §1
# [23] = target: Neu5Gc(a2-3)Gal(b1-4)GlcNAc
# Outline: as §1
# [24] = target: Neu5Gc(a2-3)Gal(b1-4)GlcNAc(b1-3)Gal(b1-4)GlcNAc(b1-2)Man(a1-3)[Neu5Gc(a2-3)Gal(b1-4)GlcNAc(b1-3)Gal(b1-4)GlcNAc(b1-2)Man(a1-6)]Man(b1-4)GlcNAc(b1-4)GlcNAc
# Outline: as §1
# [25] = target: Neu5Gc(a2-3)Gal(b1-4)[Fuc(a1-3)]GlcNAc
# Outline: as §1
# [26] = target: Neu5Gc(a2-6)Gal(b1-4)GlcNAc
# Outline: as §1
# [27] = target: Neu5Gc(a2-6)GalNAc
# Outline: as §1
# [28] = target: Neu5Gc(a2-8)Neu5Ac(a2-3)Gal(b1-4)GlcNAc
# Outline: as §1
# [29] = target: Neu5Gc(a2-8)Neu5Gc(a2-3)Gal(b1-4)GlcNAc
# Outline: as §1
# [30] = target: Neu5Gc(a2-8)Neu5Gc(a2-3)Gal(b1-4)GlcNAc(b1-3)Gal(b1-4)GlcNAc
# Outline: as §1
# [31] = target: Neu5Gc(a2-8)Neu5Gc(a2-6)Gal(b1-4)GlcNAc
# Outline: as §1
# [32] = target: Neu5Gc(b2-6)Gal(b1-4)GlcNAc
# Outline: as §1
binder,measurement,setting,value
rEtpA (Escherichia coli) (protein) MNRIYKLKFDKRRNELVVVSEITTGVGNAKATGSVEGEKSPRRGVRAMALSLLSGMMIMAHPAMSANLPTGGQIVAGSGSIQTPSGNQMNIHQNSQNMVANWNSFDIGKGNTVQFDQPSSSAVALNRVVGGGESQIMGNLKANGQVFLVNPNGVLFGEGASVSTSGFVASTRDIKNDDFMNRRYTFSGGQKAGAAIVNQGELTTNAGGYIVLAADRVSNSGTIRTPGGKTVLAASERITLQLDNGGLMSVQVTGDVVNALVENRGLVSARDGQVYLTALGRGMLMNTVLNVSGVVEASGMHRQDGNIVLDGGDSGVVHLSGTLQADNASGQGGKVVVQGKNILLDKGSNITATGGQGGGEVYVGGGWQGKDSNIRNADKVVMQGGARIDVSATQQGNGGTAVLWSDSYTNFHGQISAKGGETGGNGGRVETSSHGNLQAFGTVSASAKKGKAGNWLLDSADITIVNGSNVSKTETTQSPPHTQFAPTAAGSAVSNTSINNRLNNGTSVTILTHRTRTGTAQGGNITVNAAINKSNGSDVNLTLQAGGNITVNNSITSTEGKLNVNLSGARTSNGSITISNNANITTNGGDITVGTTNTSNRVNISINNTTLNASNGNIQLTGTGTDSGILFAGNNRLTASNIALTGNSTSGNAINLTGTATLNATNNITLTGSSTSGNAINLKGNNTLTASNITLTGESTSGNAINLTDTTGTTTLNATNNITMQGTRVQIKHSNITAGNFALNATVAGSEISNTTLTATNNINLAAKTNSASSGVYLKDARITSTNGSITANGTATANGKATHLDGNVTLNASNGRIKLTGNGHGSASGILFAGNNRLTASNIALTGNSTSGNAINLTGTATLNATNDITLTGSSTSGNAINLTGTATLNATNNITLTGSSTSGNAINLKGNNTLTASNITLTGESTSGNAINLTDTTGTTTLNATNNITMQGTRVQIKHSNITAGNFALNATVAGSEISNTTLTATNNINLAAKTNSASSGVYLKDARITSTNGSITANGTATANGKATHLDGNVTLNASNGRIKLTGNGHGSASGILFAGNNRLTASNIALTGNSTSGNAINLTGTATLNATNDITLTGSSTSGNAINLTGTATLNATNNITLTGSSTSGNAINLKGNNTLTASNITLTGESTSGNAINLTDTTGTTTLNATNNITMQGTRVQIKHSNITAGNFALNATVAGSEISNTTLTATNNINLAAKTNSASSGVYLKDARITSTNGSITANGTATANGKATHLDGNVTLNASNGRIKLTGNGHGSASGILFAGNNRLTASNIALTGNSTSGNAINLTGTATLNATNDITLTGSSTSGNAINLTGTATLNATNNITLTGSSTSGNAINLKGNNTLTASNITLTGESTSGNAINLTDTTGTTTLNATNNITMQGTRVQIKHSNITAGNFALNATVAGSEISNTTLTATNNINLAAKTNSASSGVYLKDARITSTNGSITTNGTATANGKATHLDGNVTLNASNGRIKLTGNGHGSASGILFAGNNRLTASNIALTGNSTSGNAINLTGTATLNATNDITLTGSSTSGNAINLTGTATLNATNNITLTGSSTSGNAINLKGNNTLTASNITLTGESTSGNAINLTDTTGTTTLNATNNITMQGTRVQIKHSNITAGNFALNATVAGSEISNTTLTATNNINLAAKTNSASSGVYLKDARITSTNGSITANGTAPANDNATYLDGNVTLNASNGSIKLTGNGNGSTSGILFAGNNTLTASNITLTGNSEVYWQKLGPEQKLISEEDLNSAVDHHHHHH,glycan array binding signal (z-score),[1],-0.362
same,glycan array binding signal (z-score),[2],-0.08
same,glycan array binding signal (z-score),[3],-0.199
same,glycan array binding signal (z-score),[4],-0.138
same,glycan array binding signal (z-score),[5],-0.337
same,glycan array binding signal (z-score),[6],-0.399
same,glycan array binding signal (z-score),[7],1.42
same,glycan array binding signal (z-score),[8],0.026
same,glycan array binding signal (z-score),[9],-0.268
same,glycan array binding signal (z-score),[10],-0.007
same,glycan array binding signal (z-score),[11],-0.42
same,glycan array binding signal (z-score),[12],-0.325
same,glycan array binding signal (z-score),[13],-0.33
same,glycan array binding signal (z-score),[14],-0.451
same,glycan array binding signal (z-score),[15],-0.386
same,glycan array binding signal (z-score),[16],-0.291
same,glycan array binding signal (z-score),[17],-0.064
same,glycan array binding signal (z-score),[18],-0.273
same,glycan array binding signal (z-score),[19],-0.29
same,glycan array binding signal (z-score),[20],-0.173
same,glycan array binding signal (z-score),[21],-0.198
same,glycan array binding signal (z-score),[22],-0.133
same,glycan array binding signal (z-score),[23],-0.194
same,glycan array binding signal (z-score),[24],-0.396
same,glycan array binding signal (z-score),[25],-0.291
same,glycan array binding signal (z-score),[26],0.192
same,glycan array binding signal (z-score),[27],-0.017
same,glycan array binding signal (z-score),[28],-0.108
same,glycan array binding signal (z-score),[29],-0.334
same,glycan array binding signal (z-score),[30],-0.353
same,glycan array binding signal (z-score),[31],-0.418
same,glycan array binding signal (z-score),[32],-0.189
